Laboratory results as given in paper PMC4336329 (PLoS ONE, 2015).
Hit rate of the full screen: of about 310,000 compounds, about 14,000 (4.5%) showed an effect of 50% or more. The effect is printed as a negative number. Some of the results follow.

Molecular target: human ether-à-go-go-related gene (hERG) potassium channel (human, UniProt Q12809)
Test: primary screen, population patch clamp on CHO cells stably expressing hERG
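Also: peak tail current of the secondary pulse compared with the same well before compound.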

Chain of human ether-à-go-go-related gene (hERG) potassium channel (Q12809 whole entry, looked up): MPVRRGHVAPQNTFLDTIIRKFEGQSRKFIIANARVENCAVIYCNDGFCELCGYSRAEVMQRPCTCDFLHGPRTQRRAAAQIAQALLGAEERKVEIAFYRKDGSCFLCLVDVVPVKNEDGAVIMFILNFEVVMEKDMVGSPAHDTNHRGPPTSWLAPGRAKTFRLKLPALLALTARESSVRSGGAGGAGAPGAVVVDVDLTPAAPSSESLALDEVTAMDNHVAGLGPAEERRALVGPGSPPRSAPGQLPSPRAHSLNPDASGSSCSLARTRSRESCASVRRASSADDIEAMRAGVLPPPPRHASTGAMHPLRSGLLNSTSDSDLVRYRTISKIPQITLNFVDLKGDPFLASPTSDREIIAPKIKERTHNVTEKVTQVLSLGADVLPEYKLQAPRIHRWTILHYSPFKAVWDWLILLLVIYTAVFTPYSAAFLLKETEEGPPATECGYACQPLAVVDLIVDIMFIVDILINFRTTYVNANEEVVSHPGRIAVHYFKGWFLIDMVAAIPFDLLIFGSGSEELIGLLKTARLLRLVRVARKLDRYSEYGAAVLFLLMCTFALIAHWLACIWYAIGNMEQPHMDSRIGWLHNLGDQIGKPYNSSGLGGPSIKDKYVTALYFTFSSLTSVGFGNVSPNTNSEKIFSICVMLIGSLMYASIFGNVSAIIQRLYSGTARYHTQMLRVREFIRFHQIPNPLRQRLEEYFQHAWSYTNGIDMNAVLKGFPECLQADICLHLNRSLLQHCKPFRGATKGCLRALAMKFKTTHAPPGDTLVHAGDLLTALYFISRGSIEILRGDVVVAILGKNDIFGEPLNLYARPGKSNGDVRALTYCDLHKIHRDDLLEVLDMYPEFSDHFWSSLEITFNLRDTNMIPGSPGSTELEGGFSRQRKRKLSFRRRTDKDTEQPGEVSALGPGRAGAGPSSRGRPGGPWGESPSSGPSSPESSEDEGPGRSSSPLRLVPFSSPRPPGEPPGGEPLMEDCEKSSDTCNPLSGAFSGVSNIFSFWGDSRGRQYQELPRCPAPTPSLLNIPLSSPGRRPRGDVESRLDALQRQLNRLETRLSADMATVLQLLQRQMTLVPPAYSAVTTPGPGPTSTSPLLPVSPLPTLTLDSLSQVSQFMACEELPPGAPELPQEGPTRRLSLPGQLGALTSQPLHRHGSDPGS

Structure (SMILES) | hERG current change (%, negative = inhibition) at 10uM
COc1ccc(C(=O)Nc2cc(=O)n(C)c(=O)n2C)cc1OC | 16%
O=C(CN1CCN(Cc2ccccc2Cl)CC1)N=Nc1c(O)[nH]c2ccccc12 | -61.3%
CCn1c(=O)c(C(=O)NCc2ccccc2OC)c(O)c2ccccc21 | 21.1%
Cc1cc2c(c(SCC(=O)Nc3ccc(C)c(C)c3)n1)C(=O)OC2 | 15.1%
Cc1ccccc1S(=O)(=O)Cc1ccc(C(=O)N(C)C2CCCCC2)o1 | -12.5%
C/C(=N/NS(=O)(=O)c1ccc(C)cc1)c1c(O)c2ccccc2oc1=O | 4.66%
COc1cc(NC(=O)NC(C)(C(F)(F)F)C(F)(F)F)cc(OC)c1OC | 6.41%
O=C(O)CCCCNS(=O)(=O)/C=C/c1ccccc1 | 13%
O=C(COC(=O)C12CC3CC(CC(C3)C1)C2)Nc1nc2c(F)c(F)c(F)cc2s1 | 28.8%
O=C1c2cccc3c(N4CCCCC4)ccc(c23)C(=O)N1c1ccccc1O | 8.38%
COc1ccc(NC(=O)Nc2ccccc2C(N)=O)cc1 | 19.2%
C/C=C/C(=O)OCC(=O)Nc1ccc(OC)c(Cl)c1 | -2.84%
Cc1cccc(N(Cc2cc3ccccc3[nH]c2=O)C(=O)c2cccs2)c1 | 14.7%
C#CCSc1ncc(S(=O)(=O)c2ccccc2)c(=O)[nH]1 | 6.67%
CN(C(=O)COC(=O)c1cc2ccccc2cc1O)C1CCCCC1 | -4.72%
O=C(O)CCCC(=O)N1N=C(c2c(-c3ccccc3)c3cc(Cl)ccc3[nH]c2=O)CC1c1cccs1 (stereo not drawn) | 23.2%
COc1ccccc1NS(=O)(=O)c1cccc2nsnc12 | -5.87%
O=C(O)c1ccc(-[n+]2c(-c3ccccc3)cc(-c3ccccc3)cc2-c2ccccc2)cc1.[O-][Cl+3]([O-])([O-])[O-] | 14.8%
Cc1ccc(-c2nnc(N3CCN(C(=O)COc4cccc(C)c4)CC3)c3ccccc23)cc1 | -54.6%
O=C(c1ccc(F)cc1F)C1CCN(c2ccc([N+](=O)[O-])cn2)CC1 | -3.73%
CCc1ccccc1-n1c(SCC(=O)N2CCCC2)nc2[nH]ncc2c1=O | -13.1%
CCC(c1nnnn1Cc1ccc(OC)cc1)N(CCCO)Cc1cc2cc3c(cc2[nH]c1=O)OCO3 (stereo not drawn) | -5.01%

Structure (SMILES) | hERG current change (%, negative = inhibition) at 10uM
CC(=O)NCC(=O)N(Cc1ccco1)C1(C(=O)NC2CCCC2)CCCCC1 | 4.93%
CCCCCOc1ccc(OC(=O)c2ccncc2)cc1 | 11.5%
COc1ccc(N(CC(=O)Nc2c(C)cccc2C)S(=O)(=O)c2ccccc2[N+](=O)[O-])c(OC)c1 | 5.86%
Cc1cccc(NS(=O)(=O)c2ccc(C)c(C(=O)N(C)C)c2)c1 | 2.28%
CC(C)(C)C1CCC(=NNS(=O)(=O)c2ccc(Br)cc2)CC1 (stereo not drawn) | 1.2%
CCNC(=O)NC(=O)C(C)OC(=O)CCCSc1nc2ccccc2s1 (stereo not drawn) | -2.79%
CC(=O)Nc1ccc(S(=O)(=O)N2CCN(c3nc4ccccc4n3CC(C)C)CC2)cc1 | -30.9%
CCCN(CCC)S(=O)(=O)c1ccc(C(=O)Nc2ccc(OCC(=O)N3CCOCC3)cc2)cc1 | -4.31%
O=C1C2CCCC1C([NH+]1CCCC1)CC2.[Cl-] (stereo not drawn) | 11.2%
O=C(CN1C(=O)NC2(CCOc3ccccc32)C1=O)c1ccc(F)cc1 (stereo not drawn) | -23.5%
COc1ccccc1-n1cnc2sc(-c3ccccc3)cc2c1=O | 10.4%
COCCSc1ccccc1C(=O)N1CCN(Cc2ccc3c(c2)OCO3)CC1 | 0.984%
Cc1cc(C)c(C)c(S(=O)(=O)N2CCN(C(=O)c3ccccc3OCc3c(C)noc3C)CC2)c1C | -12.4%
CCC(C)(C)c1ccc(Oc2ccc(NC(=O)COC(=O)C3=COCCO3)cc2)cc1 | 4.67%
Cc1ccc(C(=O)N/C(=C/c2ccc(-c3ccc([N+](=O)[O-])cc3)o2)C(=O)NCCCN(C)C)cc1 | -73.7%
Cc1cc(C)c(C)c(S(=O)(=O)N2CCC(C(=O)N3CCCCCCC3)CC2)c1C | -11.8%
COc1ccc(C(N)=O)cc1NC(=O)c1cccc(F)c1 | 18.9%
CCN(C(=O)COC(=O)c1cc(S(=O)(=O)N2CCOCC2)ccc1F)C1CCS(=O)(=O)C1 (stereo not drawn) | 10.9%
COc1cc(/C=C(\C#N)C(=O)N2CCOCC2)ccc1OCc1ccccc1 | 22.9%
Cc1cc(NC(=O)c2ccccc2Cl)c(C(C)C)cc1O | 3.9%
COc1ccc(-n2c(C)nnc2SCC(=O)Nc2ccccc2F)cc1 | 24.8%
CCOC(=O)c1[nH]ncc1[C@@H]1C[C@H]2CN(Cc3cccc(Cl)c3)C(=O)[C@]23CCCN13 | -27.4%

Structure (SMILES) | hERG current change (%, negative = inhibition) at 10uM
Cc1nc2ccc(-n3ccc(=O)cc3)cc2s1 | 8.37%
CCOc1ccc(NC(=O)CN(C)C(=O)CSCc2ccc(C)cc2)cc1OCC | -20.1%
O=C(O)CSc1c2c(nc3cc(C(=O)Nc4cccc(C(F)(F)F)c4)ccc13)CCCC2 | 22.1%
COc1ccc(-n2nnnc2SCC(=O)Nc2cccc(C)n2)cc1OC | 4.02%
O=C(Nc1ccc(Oc2ccc(Cl)cc2)cc1)c1ncn[nH]1 | 16.4%
CC(=O)N(C(C)=O)N1C(=O)C2C3c4ccccc4C(c4ccccc43)C2C1=O (stereo not drawn) | -47.6%
Cl.NN=C(N)N | 5.42%
COc1cc(-c2[nH]nc3c2C(c2ccoc2)C(C#N)=C(N)O3)cc(OC)c1OC (stereo not drawn) | -11.6%
Cc1ccn2c(NC3CCCC3)c(-c3cccs3)nc2c1.Cl | -15.4%
COc1ccc(-c2cc(C(F)(F)F)c(C#N)c(SCC(=O)O)n2)cc1OC | 16%
COc1ccc(C(=O)Nc2ccccc2N2CCCCC2)cc1[N+](=O)[O-] | -7.54%
CCOC(=O)C/C(N)=N/NC(=O)c1ccc(Cl)cc1Cl | 39.1%
CC(OC(=O)C1=COCCO1)C(=O)Nc1ccc(Oc2ccccc2)cc1 (stereo not drawn) | -5.61%
O=C(CSc1nnc(-c2cccs2)o1)OCc1ccccc1 | 8.91%
O=C(CSc1ccccc1)N1CCN(c2ccccc2)CC1 | -22.3%
Cc1ccc(OCC(=O)OCC(=O)NC2CC2)cc1C | 4.09%
COc1cc(OC)c(C(=O)COc2ncnc3ccccc23)c(OC)c1 | -1.26%
CC(=O)Nc1c(C)nn(C(C)=O)c1C | 16.4%
Brc1ccccc1-c1nnc(COc2ncnc3ccccc23)o1 | -8.52%
CC1(C)Cc2ccccc2-c2nc3n(c(=O)c21)CCCS3 | 12.8%
Cc1cc(C)cc(OCCNC(=O)c2cc(S(=O)(=O)N3CCOCC3)ccc2F)c1 | -30.2%
CC(=O)N1CCN(c2ccc(NC(=O)c3cccc(C)c3)cc2)CC1 | 18.5%

Structure (SMILES) | hERG current change (%, negative = inhibition) at 10uM
CS(=O)(=O)c1ccc(NCCc2ccc(S(N)(=O)=O)cc2)c([N+](=O)[O-])c1 | -10.6%
CCOC(=O)C1C(=O)NC(N2CCOCC2)=NC1C(C)C (stereo not drawn) | 6.96%
Cc1cccc(N(CC(=O)NC2CCCCC2)C(=O)c2csnn2)c1 | 7.69%
CCCN1C(=O)c2ccc(C(=O)NC3=NCCS3)cc2C1=O | 10%
CCOc1ccccc1NC(=O)Nc1cc(S(=O)(=O)N(C)C)ccc1C | 15%
Cn1c(CN2CCOCC2)nc2cc(NC(=O)COc3ccc([N+](=O)[O-])cc3)ccc21 | -33.3%
CC(=O)c1c(C)n([O-])c2cc(C)ccc2[n+]1=O | -5.26%
Cn1c(=O)n(C)c(=O)n(CC(=O)N2CCCCC2)c1=O | -8.38%
CCc1ccc(CN2CCCC(CNS(=O)(=O)c3ccc(OC)cc3)C2)cc1 (stereo not drawn) | -69.8%
COc1ccc(CC2S/C(=N/N=C/c3ccccc3O)NC2=O)cc1 (stereo not drawn) | 17.2%
O=C(O)c1ccccc1CSc1nnnn1-c1ccccc1 | 12.6%
CCOC(=O)c1c(NC(=O)CC)sc(C(=O)NC2CCCC2)c1C | -15.6%
CN(c1ccccc1)c1nc(N)c([N+](=O)[O-])c(Nc2cccc(F)c2)n1 | 24%
Nc1nc(-c2ccco2)nn1S(=O)(=O)c1ccc(Cl)cc1 | 16.6%
Cc1ccc(/C=N/NC(=O)CC2N=C(Cc3ccccc3)NNC2=O)cc1 (stereo not drawn) | 16.6%
CN(C)C(=O)Oc1ccc(-c2cn3cc(C(F)(F)F)ccc3n2)cc1 | -3.56%
CCN1CSC(=S)N(Cc2ccc(OC)cc2)C1 | 7.59%
CN(CC1CCCN(CCc2ccc(Cl)cc2)C1)C(=O)CC(F)(F)F (stereo not drawn) | -60.5%
CN(C)S(=O)(=O)c1cccc(NC(=O)c2cnccn2)c1 | -11.2%
Cc1nc(N2CCN(S(=O)(=O)c3cccc4nonc34)CC2)c2c3c(sc2n1)CCCC3 | -1.38%
Cc1ccc(NC(=O)CN2C(=O)NC(C)(C3CC3)C2=O)c(C)c1 (stereo not drawn) | 14.1%
